Data published in PubChem BioAssay AID540317 (National Center for Advancing Translational Sciences (NCATS), 2011).
Screen size: about 390,000 compounds; about 2,200 (0.56%) were called active. Inconclusive results, whose numbers are uncertain, are shown with a selection of clear calls. Calls come from the whole dose curve; as a rule, active = well fitted inhibition curve with a large enough effect; inconclusive = small, poorly fitted or top-dose-only effect; inactive = no such curve, though single readings can be large or run the other way. Where the call is inconclusive, the potency comes from a doubtful curve fit.

What follows are compounds tested against Chromobox protein homolog 1 (Homo sapiens) (UniProt P83916) (assay: HTS for Inhibitors of HP1-beta Chromodomain Interactions with Methylated Histone Tails). Conditions: AlphaScreen HP1-beta / biotin-H3K9me3 peptide binding; series mostly up to 114 µM; activity change, negative = inhibition: at the top concentration.
Procedure, shortened: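 Compound inhibition of the preformed complex between 50 nM HP1-beta and 50 nM biotinylated H3K9me3 peptide was read by AlphaScreen. Buffer was PBS pH 7.4 with 0.01% Tween-20. Incubations ran 30 min at room temperature, with 10 ug/mL donor/acceptor beads.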
Note: nearly all actives have a fitted effect of over 70% in size.
Potency is the fitted concentration of half-maximal effect; tags give direction and shape of the fitted curve.

Sequence of UniProt P83916 (P83916 whole entry, looked up): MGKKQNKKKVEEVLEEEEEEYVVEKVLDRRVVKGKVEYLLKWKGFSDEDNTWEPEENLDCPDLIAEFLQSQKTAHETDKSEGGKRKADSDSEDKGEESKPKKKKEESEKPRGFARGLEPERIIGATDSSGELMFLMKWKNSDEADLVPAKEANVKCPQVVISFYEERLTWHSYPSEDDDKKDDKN

**Q.** For `Cc1ccc2c(c1)C(c1ccccc1)N(C(=O)c1cccc([N+](=O)[O-])c1)CC(=O)N2` (stereo not given), which Potency is on record?
**A.** inconclusive: 70.8 µM [inhibitor, partial curve, poor fit]

**Q.** How did the Potency turn out when `CCN(Cc1ccccc1)C1CCN(Cc2ccc(SC)cc2)CC1` was run?
**A.** inconclusive: 39.8 µM [inhibitor, partial curve]

**Q.** Which Potency does the source give for `CCN(CC)CCOC(=O)C(Cc1ccco1)Cc1cccc2ccccc12` (stereo not given) here?
**A.** inconclusive: 50.1 µM [inhibitor, partial curve, poor fit]

**Q.** Which “activity change, negative = inhibition” value does the source give for `O=c1[nH]c(CSc2nc3ccccc3s2)nc2ccccc12` here?
**A.** inactive: -3.79%

**Q.** How did the Potency turn out when `CCCC(c1nnnn1Cc1cccs1)N1CCN(C2CCCC2)CC1` (stereo not given) was run?
**A.** inconclusive: 39.8 µM [inhibitor, single point]

**Q.** For `COc1ccc(OC)c(/C=C2\SC(=S)N(NS(=O)(=O)c3ccc(C)cc3)C2=O)c1`, which Potency is on record?
**A.** inconclusive: 39.8 µM [inhibitor, partial curve]

**Q.** For `O=C(NCc1ccccc1)c1ccc(Cn2c(=O)c3cccn3c3cccnc32)cc1`, which “activity change, negative = inhibition” value is on record?
**A.** inactive: 28.8%

**Q.** `O=C(Nc1cccc(S(=O)(=O)Nc2ccc(Cl)cc2)c1)c1ccccn1` was tested. Which Potency did it give?
**A.** inconclusive: 20 µM [inhibitor, full curve, poor fit]

**Q.** Which “activity change, negative = inhibition” value does the source give for `Cc1ccc(NC(=O)C2CCN(c3ncccn3)CC2)cc1F` here?
**A.** inactive: 27.5%

**Q.** How did the “activity change, negative = inhibition” value turn out when `NC(=S)N/N=C/c1cc([N+](=O)[O-])ccc1OCCOc1ccccc1` was run?
**A.** inactive: 36%

**Q.** How did the “activity change, negative = inhibition” value turn out when `Cc1ccc(C(=O)CN(CCCC(N)=O)S(=O)(=O)c2ccc([N+](=O)[O-])cc2)cc1` was run?
**A.** inactive: 13.2%

**Q.** Which Potency does the source give for `O=S1(=O)CC(O)C(N=Nc2c(O)n(Cc3ccccc3)c3ccccc23)C1` (stereo not given) here?
**A.** inconclusive: 10 µM [inhibitor, full curve]

**Q.** Which Potency does the source give for `Oc1ccc(/C=N/Nc2ccccc2)cc1` here?
**A.** inconclusive: 89.1 µM [inhibitor, single point]

**Q.** `COc1ccc(Oc2cn[nH]c2-c2ccc(OC)cc2O)cc1` was tested. Which Potency did it give?
**A.** inconclusive: 79.4 µM [inhibitor, partial curve, poor fit]

**Q.** How did the “activity change, negative = inhibition” value turn out when `COc1cc(S(=O)(=O)NCc2ccccc2Cl)ccc1-n1cnnn1` was run?
**A.** inactive: 32.2%

**Q.** `CCN(Cc1ccccc1)Cc1c(F)cccc1F` was tested. Which Potency did it give?
**A.** inconclusive: 56.2 µM [inhibitor, single point]

**Q.** With `CNc1ccccc1C(C)(C)c1cc(-c2cccc(OC)c2)no1` as the compound, how does the “activity change, negative = inhibition” value read?
**A.** inactive: 31.8%

**Q.** With `NC(=O)c1c(NC(=O)Cn2cnc([N+](=O)[O-])n2)sc2c1CCCC2` as the compound, how does the “activity change, negative = inhibition” value read?
**A.** inactive: 11.2% [at 57 µM]

**Q.** With `C(=C\c1sc(Nc2ccccc2)n[n+]1-c1ccccc1)/c1ccccc1` as the compound, how does the Potency read?
**A.** inconclusive: 15.8 µM [inhibitor, full curve]

**Q.** Which Potency does the source give for `COC(=O)c1cc2n3ccccc3c(C)c(-c3ccccc3)c-2c1C(=O)OC` here?
**A.** inconclusive: 50.1 µM [inhibitor, partial curve]

**Q.** Which Potency does the source give for `Cc1cc(C)c([N+](=O)[O-])cc1-c1ccc(/C=N/c2c(-c3ccco3)nc3ccccn23)o1` here?
**A.** inconclusive: 4.47 µM [inhibitor, full curve, poor fit]

**Q.** Which “activity change, negative = inhibition” value does the source give for `CCCCn1c(N)c(N(CC(C)C)C(=O)CSCC(=O)Nc2cccc(C)c2)c(=O)[nH]c1=O` here?
**A.** inactive: 11.8%

**Q.** For `COc1ccc(CN2CCC(C(=O)N(C)CCc3ccc(OC)c(OC)c3)CC2)c(OC)c1`, which Potency is on record?
**A.** inconclusive: 15.8 µM [inhibitor, full curve, poor fit]

**Q.** For `CC(=O)c1ccc(NC(=O)/C=C/c2ccc(C)o2)cc1`, which Potency is on record?
**A.** inconclusive: 25.1 µM [inhibitor, full curve]

**Q.** Which Potency does the source give for `Cc1c(C)n(CC(O)CN2CCCCC2)c2ccccc12` (stereo not given) here?
**A.** inconclusive: 50.1 µM [inhibitor, partial curve]

**Q.** Which Potency does the source give for `Nc1ccc(N2CCCC2)c(S(=O)(=O)Nc2cccc(C(F)(F)F)c2)c1` here?
**A.** inconclusive: 14.1 µM [inhibitor, partial curve, poor fit]

**Q.** For `CCOC(=O)c1ccc(NC(=O)CN2CCN(C(=O)C3CCCO3)CC2)cc1` (stereo not given), which “activity change, negative = inhibition” value is on record?
**A.** inactive: 26%

**Q.** With `Cc1cccc(NC(=O)CN2C(=O)COc3ccc(S(=O)(=O)Nc4ccccc4)cc32)c1C` as the compound, how does the “activity change, negative = inhibition” value read?
**A.** inactive: 19.5%

**Q.** `CCN(CC)CC(=O)Nc1cc(N(C)C)nc2ccccc12` was tested. Which Potency did it give?
**A.** inconclusive: 15.8 µM [inhibitor, full curve, poor fit]

**Q.** For `COc1ccccc1C(=O)CSc1nccn1C`, which “activity change, negative = inhibition” value is on record?
**A.** inactive: -4.81%

**Q.** With `Cc1cc(C)cc(C(=O)NC(=S)Nc2ccc3c(c2)OCCO3)c1` as the compound, how does the Potency read?
**A.** inconclusive: 14.1 µM [inhibitor, full curve]

**Q.** Which “activity change, negative = inhibition” value does the source give for `COc1ccc(-c2csc(Nc3cc(C)ccn3)n2)cc1C` here?
**A.** inactive: 9.16%

**Q.** Which Potency does the source give for `Cc1ccc(C(=O)O)cc1NC(=S)NC(=O)c1ccc(-c2ccccc2)cc1` here?
**A.** inconclusive: 22.4 µM [inhibitor, single point]

**Q.** Which “activity change, negative = inhibition” value does the source give for `COc1ccc(-c2nc3cc(C(C)C)ccc3o2)cc1NC(=O)c1ccc(C)c(Cl)c1` here?
**A.** inactive: 49.8%

**Q.** Which Potency does the source give for `CC(C(=O)N(C)Cc1ccccc1)N1CCN(C/C=C/c2ccccc2)CC1` (stereo not given) here?
**A.** inconclusive: 14.1 µM [inhibitor, partial curve, poor fit]

**Q.** `O=C(NCCc1ccccc1)C(=O)c1cn(CC(=O)N2CCCC2)c2ccccc12` was tested. Which “activity change, negative = inhibition” value did it give?
**A.** inactive: 23.6%

**Q.** For `CN1/C(=C\C(=S)Nc2ccccc2)C(C)(C)c2ccccc21`, which Potency is on record?
**A.** inconclusive: 31.6 µM [inhibitor, full curve]

**Q.** Which Potency does the source give for `O=C(CN1c2ccccc2Sc2ccccc21)NNC(=S)Nc1ccc(Cl)cc1` here?
**A.** inconclusive: 50.1 µM [inhibitor, partial curve]

**Q.** How did the Potency turn out when `COc1ccc(/C=N/NC(=O)CCc2n[nH]c(=O)[nH]c2=O)cc1OC` was run?
**A.** inconclusive: 39.8 µM [inhibitor, single point]

**Q.** `C=CCSC(=C(C#N)C#N)c1cc2c([nH]1)CCCC2` was tested. Which Potency did it give?
**A.** inconclusive: 56.2 µM [inhibitor, partial curve]

**Q.** For `CNC(=S)N(CCc1c(C)[nH]c2ccccc12)Cc1ccco1`, which Potency is on record?
**A.** inconclusive: 39.8 µM [inhibitor, partial curve, poor fit]

**Q.** For `c1ccc(-c2ccccc2OCCOCCN2CCCCC2)cc1`, which Potency is on record?
**A.** inconclusive: 28.2 µM [inhibitor, partial curve]

**Q.** For `Cc1ccc2cccc(NC(=O)c3ccc(C#N)cc3F)c2n1`, which “activity change, negative = inhibition” value is on record?
**A.** inactive: 20.8%

**Q.** `Fc1ccc(-c2csc(Nc3ccccn3)n2)c(F)c1` was tested. Which Potency did it give?
**A.** inconclusive: 31.6 µM [inhibitor, single point]

**Q.** Which “activity change, negative = inhibition” value does the source give for `CCN(CC(=O)Nc1cccc(C(C)=O)c1)S(=O)(=O)c1ccc(OC)cc1` here?
**A.** inactive: 16.2%
